# Measured values reported in the supplement of paper PMC3334620.
# The full ranking holds about 33,000 sequences; the median of “E-score (-0.5 to 0.5)” is about -0.036, and the highest 2% start at about 0.37. The list shows a part of the results.
# Molecular target: T1, Yer064c (UniProt P40041)
# T1 sequence: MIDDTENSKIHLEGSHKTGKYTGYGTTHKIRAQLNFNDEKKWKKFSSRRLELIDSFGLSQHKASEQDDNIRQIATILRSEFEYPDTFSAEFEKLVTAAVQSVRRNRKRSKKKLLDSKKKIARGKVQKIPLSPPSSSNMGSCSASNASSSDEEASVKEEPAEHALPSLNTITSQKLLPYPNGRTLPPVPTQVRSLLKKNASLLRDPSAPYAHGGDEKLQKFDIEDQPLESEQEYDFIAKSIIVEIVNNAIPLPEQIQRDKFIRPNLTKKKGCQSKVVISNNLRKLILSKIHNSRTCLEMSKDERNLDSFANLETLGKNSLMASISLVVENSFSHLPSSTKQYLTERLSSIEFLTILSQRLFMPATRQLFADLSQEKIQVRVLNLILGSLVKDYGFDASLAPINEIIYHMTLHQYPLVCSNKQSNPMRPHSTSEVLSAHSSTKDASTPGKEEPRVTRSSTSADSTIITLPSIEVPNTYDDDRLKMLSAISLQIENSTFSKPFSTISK
# Experiment: PBM E-score (8-mer binding enrichment) (E-score (-0.5 to 0.5)); higher = stronger / more preferred TF binding; most listed sequences are background and not binding sites
# Details: protein concentration: 200 nM; construct: GST-full length
# How it was run: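 Universal all-10-mer Agilent arrays, fresh or stripped once, were converted to double-stranded form by primer extension. GST-tagged yeast transcription factors from PURExpress in vitro transcription/translation, full-length or DNA-binding domain only, were applied at about 100-200 nM and detected with fluorescent anti-GST. After masliner normalisation, the Universal PBM Analysis Suite scored each ungapped eight-base word together with its reverse complement by E-score.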
row,Sequence,PBM E-score
1,AATTCGAG,-0.0849
2,ATCCTTGG,0.0927
3,AGAAAAAA,0.0323
4,CCATTTAA,0.182
5,CACTCAGC,-0.0645
6,AACTCGTC,0.00343
7,ACTTCTCG,-0.0591
8,AAGACTGT,0.254
9,AAGTTGAG,0.126
10,GGATTCGA,-0.11
11,ACGAAACC,-0.0418
12,CAGGTCGA,0.0262
13,CGCGATGC,-0.21
14,AGTTCCCA,-0.0103
15,AGGGTCCG,-0.326
16,ACAGGTGA,0.168
17,CATATCGG,-0.102
18,CTTCTCCA,-0.193
19,CAAATATA,-0.0548
20,TGTGTCAA,0.00966
21,CAGGACGC,-0.261
22,AGCGGTAG,0.00737

row,Sequence,PBM E-score
1,CAGGGGGC,-0.337
2,GCCCGCGA,-0.0919
3,ACCTGTAT,-0.138
4,AAAATCGG,-0.131
5,GTCCTGGA,-0.0558
6,GACGATGA,0.285
7,CCGCGTTC,-0.274
8,CTGTCTAC,-0.0153
9,GACGTTTA,-0.0582
10,GAAAAATC,0.0691
11,ACTGGCCG,-0.205
12,AGGATGTA,-0.0927
13,CGTAGAAC,-0.146
14,ATAGAAGC,-0.0871
15,ACAATCTC,-0.108
16,AACTCACC,0.275
17,CAGTACCG,-0.231
18,TAAGCAAA,-0.0484
19,GTTTGAGA,0.0063
20,GCAACGGA,-0.0959
21,GTATGTCA,0.0569
22,GAGCAGCC,-0.0909

row,Sequence,PBM E-score
1,AGCCGTAA,0.0882
2,GCGCACCA,-0.257
3,CCTGCTAA,-0.25
4,TCTAAACA,0.00267
5,ACAGCCAG,-0.0658
6,ATTCATCA,0.162
7,AACACTGG,-0.0679
8,CGATGGAA,-0.116
9,ACTCTTCC,0.223
10,CGGAAGGC,-0.196
11,ACGCGGCC,-0.211
12,GAGTAGAA,0.0321
13,GAAGACCA,0.0465
14,ATAAGAGC,-0.114
15,AGGTAGTA,0.0729
16,ACGCAGCG,-0.285
17,CAGCCCGA,-0.0877
18,AGTCATTC,0.482
19,ATGCGACG,-0.0574
20,AGGAACAC,-0.00719
21,CTTACGAA,0.0843
22,TACTGGCA,-0.0563

row,Sequence,PBM E-score
1,GAGGGCAA,-0.232
2,AACCTACA,-0.0331
3,TACTCGGA,0.188
4,CACCTAGA,0.00347
5,AAGAGGAT,-0.0191
6,ACAAGATC,-0.147
7,CTATGCAG,-0.0689
8,AAAATTGT,-0.0364
9,TCCCTGCA,-0.0522
10,GACGTGCC,-0.264
11,ATTAACGG,0.0909
12,GTTGAGAA,0.151
13,AGGGGGTC,-0.406
14,ATGGCCTA,-0.31
15,GACCAATC,-0.111
16,GTGTCAGA,0.179
17,GTACTGCA,-0.0703
18,ACTGCTCT,0.117
19,CCCGGGAG,-0.0275
20,AATAGTGC,-0.0995
